Assay results: PubChem BioAssay AID1768 (National Center for Advancing Translational Sciences (NCATS), 2009)
About 620 (0.23%) of roughly 270,000 compounds were called active. Inconclusive means that the source gave no clear call. Such entries were picked first, then a sample of the others. Calls come from the whole dose curve; as a rule, active = well fitted inhibition curve with a large enough effect in the polarisation, with a control signal flat (not every such curve was filed as active); inconclusive = small, poorly fitted or top-dose-only effect, or effect the other way, or a change in a side signal; inactive = no such curve, though single readings can be large or run the other way; the % refers to the polarisation. A potency beside an inconclusive call is a rough fit, not a confirmed value. A note “side channel” means that the fit belongs to a control or component signal, not to the main read-out.

Each compound was assayed against Menin (Homo sapiens) (UniProt O00255) (assay: qHTS Assay for Inhibitors Targeting the Menin-MLL Interaction in MLL Related Leukemias: Competition With Texas Red Labeled MLL-derived Mutant Peptide). Conditions: fluorescence polarization; FP activity change, negative = inhibition: at 61.6 µM (top of the series).
Potency is the fitted concentration of half-maximal effect; tags give direction and shape of the fitted curve or compound fluorescence and quenching.
Throughout, for FP activity change, negative = inhibition: % of control where 0% means no effect.

UniProt O00255, sequence (O00255 whole entry, looked up): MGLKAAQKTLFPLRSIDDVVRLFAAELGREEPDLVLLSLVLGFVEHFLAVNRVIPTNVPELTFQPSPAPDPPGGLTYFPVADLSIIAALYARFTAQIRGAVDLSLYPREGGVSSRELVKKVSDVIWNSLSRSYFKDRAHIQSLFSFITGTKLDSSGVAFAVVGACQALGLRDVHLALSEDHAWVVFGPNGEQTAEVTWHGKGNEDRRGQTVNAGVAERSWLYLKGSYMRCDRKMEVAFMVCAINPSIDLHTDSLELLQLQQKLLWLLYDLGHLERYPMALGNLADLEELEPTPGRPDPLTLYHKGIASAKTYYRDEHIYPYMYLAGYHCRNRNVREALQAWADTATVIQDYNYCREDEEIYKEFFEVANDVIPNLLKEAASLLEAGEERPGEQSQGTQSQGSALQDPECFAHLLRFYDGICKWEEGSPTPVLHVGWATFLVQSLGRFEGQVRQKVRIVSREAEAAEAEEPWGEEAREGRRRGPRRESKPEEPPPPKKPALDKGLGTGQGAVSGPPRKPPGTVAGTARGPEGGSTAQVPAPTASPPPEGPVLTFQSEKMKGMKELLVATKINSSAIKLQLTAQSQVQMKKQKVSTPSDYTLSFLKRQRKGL

| SMILES | Potency | FP activity change, negative = inhibition |
| --- | --- | --- |
| COc1ccc(C(CCNCc2ccc(N(C)C)cc2)c2ccccc2)cc1 (stereo unspecified) | inconclusive: 7.08 µM [fluorescent, side channel, full curve] | – |
| CC[n+]1c(/C=C/Nc2ccccc2)sc2ccccc21 | inconclusive: 28.2 µM [fluorescent, side channel, partial curve] | – |
| C#CC(C)(C)NC(=O)c1cnc(-c2ccccc2)nc1-c1ccccc1 | inconclusive: 12.6 µM [inhibitor, partial curve] | – |
| CCOC(=O)c1c(NC(=O)CSc2nnc(C)s2)sc2c1CCN(C)C2 | inconclusive: 17.8 µM [inhibitor, single point] | – |
| Cc1sc2ncnc(N(C)C3CCCCC3)c2c1C | inconclusive: 20 µM [inhibitor, partial curve] | – |
| Cc1cc(C)c(S(=O)(=O)/N=C2\C=CC(=O)C(Cl)=C2)c(C)c1 | inconclusive: 17.8 µM [quencher, side channel, partial curve] | – |
| COc1ccccc1NS(=O)(=O)c1cccc(NC(=O)Nc2ccc(Cl)cc2)c1 | inconclusive: 5.62 µM [quencher, side channel, partial curve] | – |
| CC1(C)Cc2ccccc2/C(=C/C(=O)N2CCCCCC2)N1 | inconclusive: 2 µM [fluorescent, side channel, full curve, poor fit] | – |
| O=C(N/N=C/c1c(O)ccc2ccccc12)c1ccc(Br)o1 | inconclusive: 7.94 µM [quencher, side channel, partial curve] | – |
| COc1ccc(/C=N/NC(=O)c2nc(Cl)c(Cl)c(N)c2Cl)cc1COc1ccccc1F | inconclusive: 20 µM [inhibitor, partial curve] | – |
| O=C(NNC(=S)Nc1cccc2ccccc12)c1cccc(Br)c1 | inconclusive: 31.6 µM [quencher, side channel, partial curve] | – |
| Cc1occc1-c1nnc(SCC(=O)N2CCN(c3ccccc3)CC2)n1C | inconclusive: 39.8 µM [inhibitor, partial curve] | – |
| Cn1cccc1CC(=O)NNC(=S)Nc1ccc(Cl)cc1 | inconclusive: 31.6 µM [quencher, side channel, single point] | – |
| CCCCOc1ccc(-c2c(C(=O)Nc3ccccc3)c(C)[nH]c(=S)c2C#N)cc1 | inconclusive: 11.2 µM [quencher, side channel, partial curve] | – |
| Nc1ccn([C@@H]2O[C@H](CO)[C@H](O)C2(F)F)c(=O)n1 | – | inactive: -3.52% |
| Cc1cc(=O)n(CCc2ccccc2)c(O)c1C#N | inconclusive: 14.1 µM [quencher, side channel, partial curve] | – |
| N#Cc1ccc(-c2ccc(F)cc2)nc1Sc1ccccc1 | inconclusive: 39.8 µM [fluorescent, side channel, single point] | – |
| CCn1c2ccccc2c2cc(NC(=O)CSc3nnnn3-c3ccccc3)ccc21 | inconclusive: 3.55 µM [quencher, side channel, full curve, poor fit] | – |
| O=C(NCc1ccco1)/C(=C/c1ccc(C(F)(F)F)cc1)c1nc2ccccc2[nH]1 | inconclusive: 31.6 µM [quencher, side channel, partial curve] | – |

| SMILES | Potency | FP activity change, negative = inhibition |
| --- | --- | --- |
| O=C(CC1SC(=Nc2ccccc2)N(Cc2ccccn2)C1=O)Nc1cccc(Cl)c1 (stereo unspecified) | inconclusive: 20 µM [quencher, side channel, partial curve] | – |
| N#Cc1cc(-c2ccccc2)oc1NC(=O)c1ccccc1 | inconclusive: 39.8 µM [quencher, side channel, single point] | – |
| O=C(Nc1nc(-c2cc(Cl)sc2Cl)cs1)c1ccc(Br)s1 | inconclusive: 7.94 µM [quencher, side channel, full curve, poor fit] | – |
| O=C(Nc1nc(-c2cccc([N+](=O)[O-])c2)cs1)c1cccc([N+](=O)[O-])c1C(=O)O | inconclusive: 15.8 µM [quencher, side channel, partial curve] | – |
| Cc1cc(OC(=O)C(C)(C)C)c([N+](=O)[O-])c(=O)[nH]1 | – | inactive: -1.21% |
| CCOC(=O)CCN1C(=O)[C@@H]2[C@H]3C(=CC[C@H]2C1=O)C(=O)[C@H]1O[C@H]1[C@H]3O | – | inactive: 1.32% [at 11.7 µM] |
| CCOc1ccc(N/C=C/C(=O)c2ccc(C)cc2)c([N+](=O)[O-])c1 | inconclusive: 39.8 µM [inhibitor, single point] | – |
| Cc1nn(-c2ccccc2)c(Cl)c1/C=N/NC(=O)c1ccc(NS(=O)(=O)c2cccs2)cc1 | inconclusive: 11.2 µM [quencher, side channel, partial curve] | – |
| CCN(CC)C1CC(=O)N(c2cccc(Cl)c2)C1=O (stereo unspecified) | inconclusive: 31.6 µM [inhibitor, single point] | – |
| CS(=O)(=O)N1CCN(c2ccccc2NC(=O)Nc2cccc(Cl)c2)CC1 | inconclusive: 12.6 µM [quencher, side channel, partial curve] | – |
| O=[N+]([O-])c1cnc2nc(-c3ccncc3)nn2c1O | inconclusive: 35.5 µM [quencher, side channel, single point] | – |
| Nc1nc2ccccc2n1Cc1ccc(Cl)c(Cl)c1 | – | inactive: -0.827% |
| CN(c1ccccc1)S(=O)(=O)c1ccc(C(=O)Nc2nnc(C3=COCCO3)o2)cc1 | inconclusive: 17.8 µM [quencher, side channel, partial curve] | – |
| Clc1ccc2[nH]cc(-c3nnnn3-c3ccccc3)c2c1 | inconclusive: 15.8 µM [quencher, side channel, partial curve] | – |
| O=C(NNC(=O)c1ccccc1C(=O)O)c1ccc(S(=O)(=O)N2CCCCC2)cc1 | inconclusive: 10 µM [quencher, side channel, single point] | – |
| CCOc1ccc2c(c1)cc(CN(C(=O)CC)C1CCCCC1)c1nnnn12 | inconclusive: 11.2 µM [inhibitor, partial curve] | – |
| CCOC(=O)C1CCCN(C/C(O)=C(\C#N)c2nc(-c3ccc(Cl)cc3)cs2)C1 (stereo unspecified) | inconclusive: 17.8 µM [quencher, side channel, partial curve] | – |
| CCn1c(COc2ccc(=O)n(-c3ccccc3)n2)nnc1SCc1ccc(C)cc1 | inconclusive: 4.47 µM [inhibitor, single point] | – |
| CCOc1ccc(-n2c(N)c(C(=O)NCc3cccnc3)sc2=S)cc1 | inconclusive: 39.8 µM [inhibitor, single point] | – |

| SMILES | Potency | FP activity change, negative = inhibition |
| --- | --- | --- |
| C=C(C)c1cccc(C(C)(C)NC(=O)Nc2cc(C)ccn2)c1 | inconclusive: 3.55 µM [fluorescent, side channel, full curve] | – |
| Cc1cc(Br)ccc1OCCN1CCCC1 | inconclusive: 35.5 µM [inhibitor, partial curve] | – |
| Clc1ccccc1N=C1NN=C(c2cccs2)CS1 | inconclusive: 20 µM [quencher, side channel, partial curve] | – |
| COc1c(F)c(F)c(C(=O)O)c(Nc2cccc(C)c2)c1F | inconclusive: 31.6 µM [quencher, single point] | – |
| CCCOc1ccc(NC(=O)C2CC(=O)N/C(=N/N=C(C)/C=C/c3ccc(N(C)C)cc3)S2)cc1 (stereo unspecified) | inconclusive: 12.6 µM [quencher, side channel, partial curve] | – |
| COc1ccc(-c2csc3nc(-c4ccccc4F)oc(=O)c23)cc1OC | inconclusive: 28.2 µM [fluorescent, side channel, single point] | – |
| COc1ccc(C/C(O)=C(\C#N)c2nc3ccccc3s2)cc1 | inconclusive: 31.6 µM [quencher, side channel, single point] | – |
| C[C@H](NC(=O)CNC(=O)[C@@H](NC(=O)[C@H](Cc1ccccc1)NC(=O)CNC(=O)CNC[C@@H](N)Cc1ccccc1)[C@@H](C)O)C(=O)N[C@@H](CCCN=C(N)N)C(=O)N[C@@H](CCCCN)C(=O)N[C@@H](CO)C(=O)N[C@@H](C)C(=O)N[C@@H](CCCN=C(N)N)C(=O)N[C@@H](CCCCN)C(N)=O | – | inactive: -5.06% |
| CC(C)=NNC(=O)CN1C(=O)NC2NC(=O)NC21 (stereo unspecified) | – | inactive: -17.1% |
| COc1ccc(CCNCc2ccc(OCC(=O)N3CCCCC3)c(OC)c2)cc1OC | inconclusive: 8.91 µM [inhibitor, partial curve] | – |
| O=C(Cc1ccc(S(=O)(=O)N2CCOCC2)s1)Nc1ccc(N2CCOCC2)cc1 | inconclusive: 15.8 µM [quencher, side channel, partial curve] | – |
| COc1ccc(-n2c(SC(CN3CCCCC3)CN3CCCC3=O)nc3ccccc3c2=O)cc1 (stereo unspecified) | inconclusive: 17.8 µM [fluorescent, side channel, partial curve] | – |
| O=c1cc[nH]c(=S)[nH]1 | – | inactive: 10.1% |
| Cc1cccc2c(N=Nc3ccccc3)c(O)[nH]c12 | inconclusive: 3.55 µM [quencher, side channel, full curve] | – |
| Oc1[nH]c2ccccc2c1C=Nc1ccc2c(c1)OCO2 | inconclusive: 12.6 µM [quencher, side channel, partial curve] | – |
| O=C(CSc1nc(-c2ccc(F)cc2)nc2c1Cc1ccccc1O2)Nc1ccc(C(=O)O)cc1 | inconclusive: 31.6 µM [fluorescent, partial curve] | – |
| CC1CN(C(=O)c2ccc(Oc3ccccc3)cc2)CC(C)O1 (stereo unspecified) | inconclusive: 12.6 µM [inhibitor, partial curve] | – |
| CCCCN1C(=O)N(c2ccccc2Cl)C(C)(O)CC1(C)C (stereo unspecified) | inconclusive: 11.2 µM [inhibitor, partial curve] | – |
